# Measured values: publication PMC6919601, “Identification of Plasmodium dipeptidyl aminopeptidase allosteric inhibitors by high throughput screening” (PLoS ONE, 2019)
# In all, about 110,000 compounds went through this assay and about 230 (0.21%) showed an effect of 50% or more. Some of the results follow.
# Biological target: DPAP1 (Plasmodium falciparum, UniProt Q8IIJ9)
# Experiment: primary screen, percent inhibition; read by cleavage of a fluorogenic dipeptide substrate; higher = more effect of the substance
# Parameters: species or system P. falciparum D10 trophozoite lysates; single well
# 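Also: 30 min substrate incubation versus DMSO and 10 µM JCP410 controls.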
# Sequence of DPAP1 (Q8IIJ9 whole entry, looked up): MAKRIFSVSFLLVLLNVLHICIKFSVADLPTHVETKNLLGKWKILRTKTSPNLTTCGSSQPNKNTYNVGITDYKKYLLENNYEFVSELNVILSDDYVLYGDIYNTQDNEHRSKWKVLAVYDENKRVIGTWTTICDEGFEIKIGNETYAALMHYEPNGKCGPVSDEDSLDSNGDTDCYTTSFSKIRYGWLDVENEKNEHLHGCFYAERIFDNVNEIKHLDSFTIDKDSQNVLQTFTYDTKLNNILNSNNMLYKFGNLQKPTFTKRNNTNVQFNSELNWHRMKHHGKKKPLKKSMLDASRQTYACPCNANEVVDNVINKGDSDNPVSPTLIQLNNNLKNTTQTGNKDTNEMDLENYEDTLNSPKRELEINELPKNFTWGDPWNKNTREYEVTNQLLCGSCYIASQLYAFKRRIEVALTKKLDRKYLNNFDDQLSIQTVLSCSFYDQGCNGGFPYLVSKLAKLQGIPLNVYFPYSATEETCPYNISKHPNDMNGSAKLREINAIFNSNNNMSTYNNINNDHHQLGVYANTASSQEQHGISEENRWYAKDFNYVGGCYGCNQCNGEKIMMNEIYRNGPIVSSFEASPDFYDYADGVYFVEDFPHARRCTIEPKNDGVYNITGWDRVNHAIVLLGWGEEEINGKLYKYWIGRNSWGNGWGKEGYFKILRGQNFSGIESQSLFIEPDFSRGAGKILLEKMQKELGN
row,SMILES,% Inhibition @ 10 uM
1,CC(C(=O)NCc1cccc(Cl)c1)n1sc2ccccc2c1=O (stereo not drawn),-2.94%
2,O=C(O)c1cc(C(=O)O)cc(N2C(=O)c3ccccc3C2=O)c1,3.25%
3,Cc1ccc(-c2nn3c(C4COc5ccccc5O4)nnc3s2)cc1C (stereo not drawn),2.89%
4,Cc1nc2c(c(C)c1CCC(=O)NCC(C)c1ccccc1)c(=O)n(C)c(=O)n2C (stereo not drawn),-3.1%
5,CN(C)CC(CN(C)C)OCc1ccccc1,3.65%
6,Cc1ccc2nc3c(cc(C(=O)NC4CCCCC4)c(=N)n3C3CCCCC3)c(=O)n2c1,1.97%
7,CC(C(=O)O)N1C(=O)C2C3CC(C2C1=O)C1C(c2ccc(Cl)cc2)c2sc(O)nc2SC31 (stereo not drawn),3.24%
8,Cc1oc(-c2ccccc2F)nc1CS(=O)(=O)CC(=O)NCCCc1ccccc1,-0.138%
9,COC(=O)C#CC(CC(C)C)NC(=O)[C@H](CC(C)C)NC(=O)[C@H](CC(C)C)NC(=O)OCc1ccccc1 (stereo partly drawn),0.079%
10,COc1cc(-c2nc(O)nc3ccc(Cl)cc23)cc(OC)c1OC,1.19%
11,CCOc1ccc(NC(=O)c2ccc(NS(=O)(=O)c3cccc(F)c3)cc2)cc1,-5.3%
12,O=C(CN(Cc1ccc(Cl)cc1)S(=O)(=O)c1ccc(Cl)cc1)Nc1ccccc1,4.42%
13,CC(=O)Nc1nc(C)nc(-c2ccccc2)c1C(C)=O,-3.97%
14,CC1=C(C(=O)Nc2ccc(Br)cc2)C(c2ccc(Cl)cc2Cl)NC(=O)N1C (stereo not drawn),1.43%
15,c1ccc(-c2cn(-c3ccccc3)c3ncnc(NCC4CCCO4)c23)cc1 (stereo not drawn),1.26%
16,CN1C(=O)/C(=C/c2ccc(OCC(=O)O)cc2)S/C1=N/c1ccc(Cl)cc1,21.2%
17,CCOC(=O)C1=C(N)OC2=C(C(=O)CC(C)(C)C2)C1c1cccc(F)c1 (stereo not drawn),2.54%
18,CC1CN(c2c3c(c(C#N)c4nc5ccccc5n24)CCC3)CC(C)O1 (stereo not drawn),18.2%
19,Nc1ccc2nc(SCC(=O)Nc3ccccc3F)sc2c1,4%
20,CCOc1ccccc1NC(=O)C(CC)CC,2.48%
21,CC(=O)C1=C(C)N=C(S)NC1c1ccccc1 (stereo not drawn),1.7%

row,SMILES,% Inhibition @ 10 uM
1,CC(=O)c1cc2c(cc1NC(=O)C(C)Oc1ccc(C)cc1)OCO2 (stereo not drawn),-2.76%
2,Cc1cc(/C=C2\SC(=O)NC2=O)c(C)n1C1CCCCC1,-0.0494%
3,CC(NC(=O)c1nc(CS(=O)(=O)c2ccc(Cl)cc2)no1)c1ccccc1 (stereo not drawn),1.76%
4,O=C(O)c1ccc(N2CCC(c3ccccc3)=N2)cc1,3%
5,CC1CCN(C(=O)C(Cc2ccccc2)NS(=O)(=O)c2cccc3nsnc23)CC1 (stereo not drawn),-3.23%
6,CC(C)(C)c1coc2cc3oc(=O)c4ccccc4c3cc12,-0.808%
7,CCc1ccc(OCC(=O)Nc2nccs2)cc1,-3.85%
8,COc1cccc(NC2=C(Cl)C(=O)N(c3ccc(C)cc3)C2=O)c1,-2.77%
9,CC(C)[C@H](NC(=O)c1ccc(-c2csc(N3CCN(C)CC3)n2)cc1)C(=O)NCC#N,-1.61%
10,COCCNC(=O)CCc1c(C)nc2c3c(C)cc(C)nc3nn2c1C,-2.45%
11,CCCC1CCC(C2CCC(C(N)=O)CC2)CC1 (stereo not drawn),4.16%
12,Cc1nc2cc(-c3ccccc3)nn2c(C)c1CCC(=O)N1CCN(c2ccccn2)CC1,-4.1%
13,CCOc1nc(Nc2ccc(Cl)cc2)nc(N2CCCCC2)n1,4.74%
14,COc1ccc(/C=C/c2nc3scc(-c4cccs4)c3c(=O)o2)cc1,-4.11%
15,Cc1nc(N)nc(O)c1CC(=O)O,2.1%
16,Cc1sc2c(sc(C)[n+]2CCCS(=O)(=O)O)c1C,-3.36%
17,Cc1cccc(Cn2cc(/C=C3/NC(=O)NC3=O)c3ccccc32)c1,-1.28%
18,CCc1c(O)n(C2CCCCC2)c(SC)nc1=O,3.35%
19,CC(=O)/N=C(\Nc1nc(C)cc(C)n1)Nc1ccccc1Cl,-1.08%
20,CCOC(=O)N1CCN(C(=O)c2cc(-c3ccc(OCC)cc3)nc3ccccc23)CC1,4.36%
21,O=C(/C=C/c1ccc2c(c1)OCO2)N1CCN(CCN2C(=O)c3cccc4cccc(c34)C2=O)CC1,13.3%

row,SMILES,% Inhibition @ 10 uM
1,O=c1cc(-c2ccccc2)c2ccc3c(c2o1)CN(Cc1ccc2c(c1)OCO2)CO3,0.895%
2,O=C(NCC1CCCO1)C1CCN(S(=O)(=O)c2cccc3cccnc23)CC1 (stereo not drawn),-3.58%
3,Cn1c(=O)n(CC(=O)O)c(=O)c2c1nc1n2CCS1,0.758%
4,O=C(O)c1cccc(-n2cnnn2)c1,-0.687%
5,CC(=O)c1cccc(NC(=O)CN2CCOCC2)c1,-3.24%
6,O=C(NCC1CCCO1)C1c2ccccc2Oc2ccccc21 (stereo not drawn),-3.49%
7,CCCn1c(SCc2nc(-c3ccc(OC)cc3)no2)nnc1-c1ccccc1,-4.02%
8,CC1(C)C=Cc2c(c3c(c4c(=O)c(-c5ccc(O)cc5)coc24)OC(C)(C)CC3)O1,-1.5%
9,CC1(C)CC2(CC(c3cccs3)c3cc(Cl)c(O)cc3O2)NC(=S)N1 (stereo not drawn),-4.49%
10,COc1ccc(-n2ncc(C(=O)NC3CCCC3)c2C2CCN(C(=O)OC(C)(C)C)CC2)cc1,-5.57%
11,O=S1(=O)N=C(NCC(O)COc2ccccc2)c2ccccc21 (stereo not drawn),3.35%
12,O=C(CSCc1cccc(Br)c1)Nc1ccc(F)cc1,2.38%
13,CCOc1ccc(C2C=C(c3cccnc3)Nc3nnnn32)cc1OC (stereo not drawn),-3.23%
14,Nc1ccccc1SC(CC(=O)c1ccc(Br)cc1)c1cccc(Br)c1 (stereo not drawn),-5.38%
15,N#CC1=C(N)Oc2[nH]nc(-c3ccccc3)c2C1c1cccc(C(F)(F)F)c1 (stereo not drawn),5.83%
16,CC1NC(=O)C(C#N)=C(SCc2ccccc2)S1 (stereo not drawn),-1.72%
17,Cc1oc(-c2cccc(Cl)c2)nc1CN1CCC(C(=O)NCCCN2CCN(C)CC2)CC1,-1.05%
18,O=C(c1ccc(Cl)c([N+](=O)[O-])c1)N1CCOCC1,-2.03%
19,COc1ccc(C2Nn3c(C)nnc3SC2C(=O)N2CCOCC2)cc1 (stereo not drawn),0.0289%
20,CCOC(=O)c1c(Cl)nc2ccccc2c1O,-3.93%
21,O=c1c(Cc2ccccc2)c(N2CCCCC2)nc2n1CCCS2,2.21%
